The BET-seq Pho4 binding data (Le et al. 2018)
This is one part of the list. The energies were worked out here from pooled read counts, against the library average; single values are noisy.

The sequences below were run against T1, Pho4 (S. cerevisiae) (UniProt P07270) (assay: relative binding free energy (BET-seq); higher = weaker binding). Details: reference: library average.
T1 sequence: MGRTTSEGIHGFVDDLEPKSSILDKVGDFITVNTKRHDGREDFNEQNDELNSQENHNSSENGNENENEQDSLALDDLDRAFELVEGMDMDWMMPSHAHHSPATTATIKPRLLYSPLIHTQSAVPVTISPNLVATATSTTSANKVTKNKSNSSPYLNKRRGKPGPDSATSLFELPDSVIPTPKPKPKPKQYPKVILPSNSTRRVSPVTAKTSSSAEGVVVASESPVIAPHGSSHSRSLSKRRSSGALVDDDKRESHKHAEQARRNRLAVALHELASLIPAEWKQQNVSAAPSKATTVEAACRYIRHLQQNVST

Q: Which “relative binding free energy” value does the source give for GTTGTCACGTGTACTC here?
A: 0.28 kcal/mol

Q: With TTGTTCACGTGGGCCA as the sequence, how does the “relative binding free energy” value read?
A: 0.27 kcal/mol

Q: How did the “relative binding free energy” value turn out when GTTTTCACGTGCACTT was run?
A: 0.2 kcal/mol

Q: Which “relative binding free energy” value does the source give for GACAGCACGTGGTTGT here?
A: -0.09 kcal/mol

Q: For TGGATCACGTGCCGGT, which “relative binding free energy” value is on record?
A: 0 kcal/mol

Q: GATCACACGTGTGTGG was tested. Which “relative binding free energy” value did it give?
A: 0.09 kcal/mol

Q: GGCGACACGTGATGGT was tested. Which “relative binding free energy” value did it give?
A: 0.29 kcal/mol

Q: For AGGGGCACGTGGCTGC, which “relative binding free energy” value is on record?
A: -0.18 kcal/mol

Q: For TGATGCACGTGGGATC, which “relative binding free energy” value is on record?
A: -0.01 kcal/mol

Q: TTTTTCACGTGCGGAG was tested. Which “relative binding free energy” value did it give?
A: 0.37 kcal/mol

Q: For GGCAGCACGTGGCGGC, which “relative binding free energy” value is on record?
A: -0.07 kcal/mol

Q: With TCATACACGTGAGGTG as the sequence, how does the “relative binding free energy” value read?
A: 0.1 kcal/mol

Q: How did the “relative binding free energy” value turn out when CTGGGCACGTGTTGAG was run?
A: -0.1 kcal/mol

Q: For AGGGACACGTGGTGAC, which “relative binding free energy” value is on record?
A: -0.01 kcal/mol

Q: How did the “relative binding free energy” value turn out when AATATCACGTGATTAT was run?
A: 0.28 kcal/mol

Q: How did the “relative binding free energy” value turn out when TAGTGCACGTGTTAGC was run?
A: 0 kcal/mol

Q: With TTGTTCACGTGAGTGC as the sequence, how does the “relative binding free energy” value read?
A: 0.34 kcal/mol

Q: For GTGGTCACGTGCGATT, which “relative binding free energy” value is on record?
A: 0.24 kcal/mol

Q: How did the “relative binding free energy” value turn out when AGGGCCACGTGGGGGG was run?
A: -0.24 kcal/mol

Q: Which “relative binding free energy” value does the source give for TTGGGCACGTGAATGT here?
A: 0.18 kcal/mol

Q: With GAATTCACGTGGTAGG as the sequence, how does the “relative binding free energy” value read?
A: 0.49 kcal/mol

Q: With TGAATCACGTGCGGGC as the sequence, how does the “relative binding free energy” value read?
A: 0.34 kcal/mol

Q: With TACGTCACGTGTGAGG as the sequence, how does the “relative binding free energy” value read?
A: -0.04 kcal/mol

Q: How did the “relative binding free energy” value turn out when AAAGTCACGTGAAAGT was run?
A: 0.35 kcal/mol

Q: How did the “relative binding free energy” value turn out when CGGTTCACGTGGATTT was run?
A: 0.43 kcal/mol

Q: With TACTGCACGTGCGGTG as the sequence, how does the “relative binding free energy” value read?
A: -0.18 kcal/mol

Q: With TAGGTCACGTGGAGCG as the sequence, how does the “relative binding free energy” value read?
A: 0.18 kcal/mol

Q: How did the “relative binding free energy” value turn out when GCGGGCACGTGGTTAA was run?
A: 0.03 kcal/mol

Q: How did the “relative binding free energy” value turn out when GAGCTCACGTGGGGAG was run?
A: 0.25 kcal/mol

Q: How did the “relative binding free energy” value turn out when ATATACACGTGTCGTG was run?
A: -0.05 kcal/mol

Q: TGTTACACGTGGTGGA was tested. Which “relative binding free energy” value did it give?
A: 0.07 kcal/mol

Q: For TGGTGCACGTGGCGAG, which “relative binding free energy” value is on record?
A: -0.1 kcal/mol

Q: For GACGGCACGTGTGTAG, which “relative binding free energy” value is on record?
A: 0.04 kcal/mol

Q: Which “relative binding free energy” value does the source give for ACGTGCACGTGTGGTC here?
A: -0.01 kcal/mol

Q: How did the “relative binding free energy” value turn out when TGACTCACGTGGGGCT was run?
A: 0.04 kcal/mol

Q: How did the “relative binding free energy” value turn out when TGATACACGTGGAGTT was run?
A: 0.08 kcal/mol

Q: How did the “relative binding free energy” value turn out when TGATTCACGTGTGAAT was run?
A: 0.24 kcal/mol

Q: Which “relative binding free energy” value does the source give for GTGTTCACGTGGACAG here?
A: 0.29 kcal/mol

Q: Which “relative binding free energy” value does the source give for TTGTTCACGTGGTCGA here?
A: 0.3 kcal/mol

Q: For AGGGTCACGTGATTAA, which “relative binding free energy” value is on record?
A: 0.14 kcal/mol

Q: For GTGATCACGTGTGGCC, which “relative binding free energy” value is on record?
A: 0.25 kcal/mol

Q: How did the “relative binding free energy” value turn out when CAGGGCACGTGTGGTG was run?
A: -0.08 kcal/mol

Q: For GTCAGCACGTGTTGGA, which “relative binding free energy” value is on record?
A: 0.11 kcal/mol

Q: For ACGGGCACGTGGGTGC, which “relative binding free energy” value is on record?
A: -0.11 kcal/mol

Q: How did the “relative binding free energy” value turn out when CGTTTCACGTGATGAG was run?
A: 0.37 kcal/mol

Q: With CAGGTCACGTGGGCTG as the sequence, how does the “relative binding free energy” value read?
A: 0 kcal/mol

Q: How did the “relative binding free energy” value turn out when GTATACACGTGGGGGT was run?
A: -0.09 kcal/mol

Q: For CGCGGCACGTGTGTTT, which “relative binding free energy” value is on record?
A: -0.14 kcal/mol

Q: Which “relative binding free energy” value does the source give for GGCGGCACGTGGCTGT here?
A: -0.19 kcal/mol

Q: For TTACACACGTGGTGGA, which “relative binding free energy” value is on record?
A: -0.07 kcal/mol

Q: With AGATACACGTGGTCTT as the sequence, how does the “relative binding free energy” value read?
A: 0.03 kcal/mol

Q: For GTCGTCACGTGGATTT, which “relative binding free energy” value is on record?
A: 0.04 kcal/mol

Q: TAGTCCACGTGATTTG was tested. Which “relative binding free energy” value did it give?
A: 0.11 kcal/mol

Q: Which “relative binding free energy” value does the source give for CTTAGCACGTGGGCGG here?
A: -0.32 kcal/mol

Q: TGTATCACGTGTTCAG was tested. Which “relative binding free energy” value did it give?
A: 0.13 kcal/mol

Q: TTCCTCACGTGTTGTT was tested. Which “relative binding free energy” value did it give?
A: 0.12 kcal/mol

Q: How did the “relative binding free energy” value turn out when GACGTCACGTGATTTG was run?
A: 0.47 kcal/mol

Q: How did the “relative binding free energy” value turn out when GTGTTCACGTGTAACG was run?
A: 0.31 kcal/mol

Q: How did the “relative binding free energy” value turn out when TTTAACACGTGTGTGT was run?
A: -0.03 kcal/mol

Q: For CGGTGCACGTGTAAGT, which “relative binding free energy” value is on record?
A: 0.2 kcal/mol

Q: AGTTGCACGTGGACCG was tested. Which “relative binding free energy” value did it give?
A: 0.07 kcal/mol

Q: GATGGCACGTGGGGGT was tested. Which “relative binding free energy” value did it give?
A: -0.13 kcal/mol

Q: GGGGGCACGTGATGTG was tested. Which “relative binding free energy” value did it give?
A: 0 kcal/mol

Q: Which “relative binding free energy” value does the source give for CCGGACACGTGGGTGG here?
A: -0.03 kcal/mol

Q: With TTATCCACGTGGGCGT as the sequence, how does the “relative binding free energy” value read?
A: -0.05 kcal/mol

Q: Which “relative binding free energy” value does the source give for AAAGTCACGTGTTTTT here?
A: 0.14 kcal/mol

Q: Which “relative binding free energy” value does the source give for AATGCCACGTGGTGTA here?
A: -0.18 kcal/mol

Q: Which “relative binding free energy” value does the source give for TTCGGCACGTGGGGGC here?
A: -0.23 kcal/mol

Q: Which “relative binding free energy” value does the source give for TGTAGCACGTGGGAGC here?
A: -0.14 kcal/mol

Q: How did the “relative binding free energy” value turn out when GATGTCACGTGTAATG was run?
A: 0.14 kcal/mol

Q: With GTATGCACGTGTGAGT as the sequence, how does the “relative binding free energy” value read?
A: 0.08 kcal/mol

Q: How did the “relative binding free energy” value turn out when TTTTCCACGTGATTAT was run?
A: 0.06 kcal/mol

Q: For TCTTGCACGTGGGTAG, which “relative binding free energy” value is on record?
A: -0.06 kcal/mol

Q: How did the “relative binding free energy” value turn out when GGCGGCACGTGTTCGG was run?
A: 0.05 kcal/mol

Q: Which “relative binding free energy” value does the source give for ATTAACACGTGGGTGC here?
A: -0.16 kcal/mol

Q: How did the “relative binding free energy” value turn out when TCAATCACGTGTATAT was run?
A: 0.2 kcal/mol

Q: How did the “relative binding free energy” value turn out when AGATGCACGTGGTGTC was run?
A: -0.06 kcal/mol

Q: How did the “relative binding free energy” value turn out when TGATACACGTGGATTT was run?
A: 0.17 kcal/mol

Q: CTTAACACGTGGCGTG was tested. Which “relative binding free energy” value did it give?
A: -0.06 kcal/mol

Q: With GCGTGCACGTGGCCGG as the sequence, how does the “relative binding free energy” value read?
A: -0.13 kcal/mol

Q: TAGTTCACGTGGCGGG was tested. Which “relative binding free energy” value did it give?
A: 0.18 kcal/mol

Q: How did the “relative binding free energy” value turn out when ATGTACACGTGGCGGG was run?
A: 0 kcal/mol

Q: Which “relative binding free energy” value does the source give for GGAAGCACGTGGGTCA here?
A: -0.2 kcal/mol

Q: Which “relative binding free energy” value does the source give for ATCGGCACGTGGTTGA here?
A: -0.22 kcal/mol

Q: How did the “relative binding free energy” value turn out when ATCAGCACGTGAGGGT was run?
A: 0.07 kcal/mol

Q: AGGGTCACGTGAGATA was tested. Which “relative binding free energy” value did it give?
A: 0.39 kcal/mol

Q: GATTGCACGTGCGGGT was tested. Which “relative binding free energy” value did it give?
A: -0.04 kcal/mol

Q: GGATGCACGTGAGATA was tested. Which “relative binding free energy” value did it give?
A: 0.21 kcal/mol

Q: How did the “relative binding free energy” value turn out when TTCTACACGTGAGGGT was run?
A: 0.24 kcal/mol

Q: Which “relative binding free energy” value does the source give for GGGAGCACGTGGTATA here?
A: -0.25 kcal/mol

Q: How did the “relative binding free energy” value turn out when AGTGTCACGTGATGTG was run?
A: 0.2 kcal/mol

Q: AGGGACACGTGGACGG was tested. Which “relative binding free energy” value did it give?
A: 0.11 kcal/mol

Q: GCGAGCACGTGTGGGG was tested. Which “relative binding free energy” value did it give?
A: -0.09 kcal/mol

Q: AGCATCACGTGTGTTT was tested. Which “relative binding free energy” value did it give?
A: 0.15 kcal/mol

Q: How did the “relative binding free energy” value turn out when TTGCGCACGTGGTTTA was run?
A: -0.16 kcal/mol

Q: Which “relative binding free energy” value does the source give for ATGGTCACGTGTTTTT here?
A: 0.17 kcal/mol

Q: For CGTTGCACGTGGTAGT, which “relative binding free energy” value is on record?
A: -0.17 kcal/mol

Q: With GTGAGCACGTGCATGG as the sequence, how does the “relative binding free energy” value read?
A: -0.22 kcal/mol

Q: For CTTGTCACGTGTGAAA, which “relative binding free energy” value is on record?
A: 0.21 kcal/mol

Q: For GTGCGCACGTGTGTTA, which “relative binding free energy” value is on record?
A: -0.15 kcal/mol

Q: For CTTAGCACGTGTAGGT, which “relative binding free energy” value is on record?
A: -0.09 kcal/mol

Q: TGCGACACGTGGGGGG was tested. Which “relative binding free energy” value did it give?
A: -0.19 kcal/mol

Q: With ATACTCACGTGTTAGG as the sequence, how does the “relative binding free energy” value read?
A: 0.34 kcal/mol

Q: How did the “relative binding free energy” value turn out when ATCGGCACGTGTTGCG was run?
A: -0.15 kcal/mol

Q: Which “relative binding free energy” value does the source give for TTACTCACGTGTAAGT here?
A: 0.15 kcal/mol

Q: For AATTTCACGTGGGTGT, which “relative binding free energy” value is on record?
A: 0.22 kcal/mol

Q: With GTGTGCACGTGGGTCC as the sequence, how does the “relative binding free energy” value read?
A: -0.13 kcal/mol

Q: Which “relative binding free energy” value does the source give for GACAGCACGTGAGTGG here?
A: 0.25 kcal/mol

Q: TGAGGCACGTGGACGC was tested. Which “relative binding free energy” value did it give?
A: -0.1 kcal/mol

Q: With TTCGACACGTGGGCGG as the sequence, how does the “relative binding free energy” value read?
A: -0.15 kcal/mol

Q: For CTAGGCACGTGTTGGA, which “relative binding free energy” value is on record?
A: -0.18 kcal/mol

Q: How did the “relative binding free energy” value turn out when GTAGGCACGTGATATG was run?
A: 0.06 kcal/mol

Q: With TTATTCACGTGTCGCT as the sequence, how does the “relative binding free energy” value read?
A: 0.21 kcal/mol

Q: For ATGTGCACGTGTGTGG, which “relative binding free energy” value is on record?
A: 0 kcal/mol

Q: With TGGAGCACGTGTGCCA as the sequence, how does the “relative binding free energy” value read?
A: 0.06 kcal/mol
